Reference: PMC6075865
These are yes or no findings as the source states them, for the method shown. In cells and extracts the contact can be indirect. Some entries that bind do so weakly or less than the wild type.

Amino acid sequences for entries named in this document (tags omitted).
UniProt P60879: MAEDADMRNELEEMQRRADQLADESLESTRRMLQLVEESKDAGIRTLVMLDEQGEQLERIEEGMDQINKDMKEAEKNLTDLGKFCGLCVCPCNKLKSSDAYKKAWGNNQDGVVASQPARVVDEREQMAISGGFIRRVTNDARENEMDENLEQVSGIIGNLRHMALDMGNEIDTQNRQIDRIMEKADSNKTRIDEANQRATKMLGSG
UniProt P63044: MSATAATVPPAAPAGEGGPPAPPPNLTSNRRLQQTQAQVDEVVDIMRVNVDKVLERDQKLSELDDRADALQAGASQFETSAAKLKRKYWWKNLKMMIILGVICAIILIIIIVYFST
UniProt P46096: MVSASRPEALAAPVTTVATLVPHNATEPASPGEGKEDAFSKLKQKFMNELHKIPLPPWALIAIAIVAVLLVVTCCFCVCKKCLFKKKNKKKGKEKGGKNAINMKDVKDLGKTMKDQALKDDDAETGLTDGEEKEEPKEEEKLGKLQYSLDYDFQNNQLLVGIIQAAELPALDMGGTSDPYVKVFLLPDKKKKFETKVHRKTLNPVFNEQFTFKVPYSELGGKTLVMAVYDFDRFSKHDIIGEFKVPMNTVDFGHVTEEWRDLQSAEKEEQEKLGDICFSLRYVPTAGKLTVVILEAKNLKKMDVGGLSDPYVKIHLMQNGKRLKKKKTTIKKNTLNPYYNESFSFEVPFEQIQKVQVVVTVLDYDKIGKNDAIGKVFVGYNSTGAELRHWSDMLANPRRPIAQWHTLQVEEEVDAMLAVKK

Tests used:
[1] = biological target: T1, CpxII CTD peptide (amino acids 101-134) with an additional C-terminal cysteine, immobilised (mouse); assay: pull-down; peptide immobilised on SulfoLink Coupling Gel (1.0 mg peptide/ml gel, 250 ul beads); Triton X-100 extract of mouse brain homogenate (0.5 mg/ml; 130 mM NaCl, 50 mM HEPES-NaOH, 1 mM EDTA, 2% Triton X-100, 1 mM PMSF, pH 7.3); supernatant and pellet by 12% SDS-PAGE and Western blot; only the target purified
T1 sequence (peptide): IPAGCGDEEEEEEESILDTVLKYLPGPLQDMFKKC

[2] = biological target: T2, scrambled variant of the CpxII CTD peptide with an additional C-terminal cysteine, immobilised; assay: as above
T2 sequence (peptide): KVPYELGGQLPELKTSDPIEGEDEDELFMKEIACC

binding [1]	binding [2]	Substance
binds	no binding	SNAP25 (from UniProt P60879 1-206)
binds weakly	no binding	Synaptobrevin II (from UniProt P63044 1-116)
no binding		Synapsin 1 (from UniProt O88935 1-706)
binds	no binding	Synaptotagmin I (from UniProt P46096 1-421)
